Data on 50 sequences can be found in the supplement of paper PMC12645437, “Orthogonal IMiD-Degron Pairs Induce Selective Protein Degradation in Cells” (ACS Chemical Biology, 2025).

The other results are listed elsewhere or left out.
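Note: jurkat cells carrying a lentiviral library of mutant zinc finger degrons fused to EGFP plus mCherry, mCherry+ cells FACS sorted, degron abundance counted by next-generation sequencing.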

The test addresses no compound (DMSO). In words: log2 fold change of degron read counts, EGFP-low vs EGFP+ sorted cells; higher = lower degron-EGFP level without compound (poor expression or instability). Conditions: compound: DMSO control; 18 h.
Turning to FDCNQCGHQFTQKGNLLRHIKL, the “log2 fold change of degron read counts” value was -0.571.
Under FICNVCGAQFTQKGNLLRHIKL stands -0.489; under FMCNQCGADFTQKGNLLRHIKL, -1.3; under FKCPICGRVFTQKGNLLRHIKL, -1.18.
Under FHCDICGAQFTQKGNLLRHIKL stands -1.46.
Consider FACEICGRCFTQKGNLLRHIKL, for which the “log2 fold change of degron read counts” value was -1.1.
The value for FQCNQCGRLFTQKGNLLRHIKL was -0.0321; that for LNCPICGFPCTQKGNLLRHIKL was 1.7; that for FGCPVCGAYFTQKGNLLRHIKL was 0.572.
In the case of FYCEICGAIFTQKGNLLRHIKL, the “log2 fold change of degron read counts” value was -0.136.
Under FYCEICGHIFTQKGNLLRHIKL stands 0.748.
Consider FCCNQCGHQFTQKGNLLRHIKL, for which the “log2 fold change of degron read counts” value is -0.305.
For the sequence LACNQCGFCCTQKGNLLRHIKL, the “log2 fold change of degron read counts” value is 0.464.
As to FHCEICGHDFTQKGNLLRHIKL, the “log2 fold change of degron read counts” value is -1.13.
Under FACDQCGANFTQKGNLLRHIKL stands -2.09; under LWCPICGFCCTQKGNLLRHIKL, 2.99; under FNCDVCGAGFTQKGNLLRHIKL, -1.6.
FYCNQCGHRFTQKGNLLRHIKL: the “log2 fold change of degron read counts” value stood at 0.83.
FSCEICGRFFTQKGNLLRHIKL: the “log2 fold change of degron read counts” value was -0.859.
Under LMCPICGFACTQKGNLLRHIKL stands 0.75; under FTCDVCGAQFTQKGNLLRHIKL, -1.76; under FYCPQCGAIFTQKGNLLRHIKL, 0.445.
For the sequence FWCNQCGAGFTQKGNLLRHIKL, the “log2 fold change of degron read counts” value was found to be 0.13.
Under LLCNQCGFNCTQKGNLLRHIKL stands 0.53; under FYCEICGHYFTQKGNLLRHIKL, 0.291.
As for FNCDICGAIFTQKGNLLRHIKL, the “log2 fold change of degron read counts” value is -0.54.
Take FQCEQCGAYFTQKGNLLRHIKL: the “log2 fold change of degron read counts” value was -1.77.
Turning to FACEQCGADFTQKGNLLRHIKL, the “log2 fold change of degron read counts” value is -0.899.
For FTCNQCGHPFTQKGNLLRHIKL, the “log2 fold change of degron read counts” value was 0.126.
The value for FLCPICGAYFTQKGNLLRHIKL was 1.01; that for FICNQCGREFTQKGNLLRHIKL was -1.01.
Turning to FCCDICGAQFTQKGNLLRHIKL, the “log2 fold change of degron read counts” value was -1.67.
Regarding FNCPICGATFTQKGNLLRHIKL, the “log2 fold change of degron read counts” value was -0.291.
In the case of FACEICGRPFTQKGNLLRHIKL, the “log2 fold change of degron read counts” value was -0.0689.
The value for FDCPICGANFTQKGNLLRHIKL was -0.871; that for FGCEICGARFTQKGNLLRHIKL was -0.801.
Regarding FQCDVCGACFTQKGNLLRHIKL, the “log2 fold change of degron read counts” value was -1.39.
FHCNICGAWFTQKGNLLRHIKL: the “log2 fold change of degron read counts” value is 0.0724.
For the sequence FRCNQCGAPFTQKGNLLRHIKL, the “log2 fold change of degron read counts” value is -0.153.
As for FLCEICGRAFTQKGNLLRHIKL, the “log2 fold change of degron read counts” value is -1.05.
The value for FTCEICGRHFTQKGNLLRHIKL was -1.5; that for LVCEICGFSCTQKGNLLRHIKL was -1.1.
As to FTCPICGHQFTQKGNLLRHIKL, the “log2 fold change of degron read counts” value was 2.71.
FCCEICGRPFTQKGNLLRHIKL: the “log2 fold change of degron read counts” value was -0.766.
The value for FQCNQCGRVFTQKGNLLRHIKL was -0.602.
The value for FYCPICGHWFTQKGNLLRHIKL was 1.4; that for FCCDVCGARFTQKGNLLRHIKL was -1.26; that for FNCEICGHLFTQKGNLLRHIKL was -0.0212.
Turning to FDCPQCGAIFTQKGNLLRHIKL, the “log2 fold change of degron read counts” value is -0.6.
The value for FECNQCGHTFTQKGNLLRHIKL was -1.41.
